# From PubChem BioAssay AID1468 (National Center for Advancing Translational Sciences (NCATS), 2008)
# The whole screen tested about 280,000 compounds, of which about 1,100 (0.39%) were called active. Inconclusive means that the source gave no clear call. Such entries were picked first, then a sample of the others. Calls come from the whole dose curve; as a rule, active = well fitted inhibition curve with a large enough effect; inconclusive = small, poorly fitted or top-dose-only effect, or effect the other way; inactive = flat fitted curve, though single readings scatter. Potencies of inconclusive entries are left out as doubtful fits.
# Molecular target: Microtubule-associated protein tau (Homo sapiens) (UniProt P10636)
# Test: qHTS for Inhibitors of Tau Fibril Formation, Fluorescence Polarization; note: nearly all actives have a fitted effect of over 55% in size
# Settings: K18 P301L tau heparin fibrillization, Alexa594 FP, 6 h; series mostly up to 57.7 µM; activity, negative = inhibition: at the top concentration
# Method in brief: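 Compound effects on tau fibrillization are measured by Alexa 594 fluorescence polarization (ex 555, em 632 nm). K18 P301L tau is used at 15 uM with 0.24 uM labeled tracer, and 20 uM heparin induces aggregation over 6 hr at 37 C.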
# % is set by controls: 0 for no effect and ±100 for the full control effect; potency is the fitted concentration of half-maximal effect; tags give direction and shape of the fitted curve.
# Chain of UniProt P10636 (P10636 whole entry, looked up): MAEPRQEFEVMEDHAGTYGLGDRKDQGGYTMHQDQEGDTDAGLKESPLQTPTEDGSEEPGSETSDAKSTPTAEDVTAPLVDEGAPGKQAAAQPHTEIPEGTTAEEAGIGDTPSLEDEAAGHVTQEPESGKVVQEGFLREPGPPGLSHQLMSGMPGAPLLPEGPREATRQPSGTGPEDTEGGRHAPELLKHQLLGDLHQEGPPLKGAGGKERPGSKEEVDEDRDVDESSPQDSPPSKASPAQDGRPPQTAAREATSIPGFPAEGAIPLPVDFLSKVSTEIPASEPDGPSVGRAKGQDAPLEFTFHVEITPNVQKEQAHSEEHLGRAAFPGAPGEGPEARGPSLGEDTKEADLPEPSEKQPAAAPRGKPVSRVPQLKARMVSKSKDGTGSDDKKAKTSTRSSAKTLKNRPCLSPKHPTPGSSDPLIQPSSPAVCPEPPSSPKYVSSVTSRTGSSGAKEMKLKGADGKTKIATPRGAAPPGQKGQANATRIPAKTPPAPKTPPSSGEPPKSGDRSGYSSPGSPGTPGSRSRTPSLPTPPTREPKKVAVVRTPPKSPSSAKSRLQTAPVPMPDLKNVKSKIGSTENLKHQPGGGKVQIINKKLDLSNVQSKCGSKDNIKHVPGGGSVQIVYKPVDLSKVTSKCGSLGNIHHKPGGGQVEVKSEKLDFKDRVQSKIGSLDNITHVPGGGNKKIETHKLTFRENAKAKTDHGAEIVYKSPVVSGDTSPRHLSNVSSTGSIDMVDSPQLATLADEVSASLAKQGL
SMILES,Potency,"activity, negative = inhibition"
CCN(CC)c1ccc(NC(=O)c2cc(C)nc3c2c(C)nn3-c2cccc(F)c2)c(C)c1,"inconclusive [activator, partial curve, poor fit]",–
CCC1CN(C(=O)N2CCC(C(=O)NCCc3ccccc3C)CC2)c2ccccc2O1 (stereo unspecified),–,inactive: 16%
N/C(=N\OC(=O)COc1ccc(Cl)cc1Br)c1cccnc1,"inconclusive [inhibitor, full curve, poor fit]",–
O=C(Nc1ccccc1CC[N+](=O)[O-])N1CCN(c2ccccc2)CC1,–,inactive: -10.5%
CCCCCCOc1ccc(N2C(=O)CC(N3CCN(C(=O)c4ccco4)CC3)C2=O)cc1 (stereo unspecified),"inconclusive [activator, partial curve, poor fit]",–
O=C(Cn1c(=O)c2ccccc2n(CC(=O)Nc2ccc(F)cc2F)c1=O)NCCc1ccccc1,"inconclusive [inhibitor, full curve]",–
CC(C)(C)NC(=O)CSc1nc2ccc(NC(=O)CSc3nnnn3Cc3ccccc3)cc2s1,"inconclusive [inhibitor, partial curve, poor fit]",–
c1ccn2cc(-c3ccc4c(c3)OCCO4)nc2c1,–,inactive: -1.09%
O=C(CC1SC(=Nc2ccccc2)N(CCc2c[nH]c3ccccc23)C1=O)Nc1ccccc1F (stereo unspecified),–,inactive: -5.67%
COc1cc(NS(=O)(=O)c2ccc(Nc3nc(-c4cccc([N+](=O)[O-])c4)cs3)cc2)nc(OC)n1,"inconclusive [activator, partial curve]",–
Nc1c(C(=O)c2cccs2)sc2nsc(SCCN3CCCCC3)c12,"inconclusive [inhibitor, partial curve, poor fit]",–
CCCCOC(=O)CNc1nnc(SCC(=O)OCC)[nH]c1=O,"inconclusive [inhibitor, single point]",–
CCN(CC)S(=O)(=O)c1ccc(N/N=C/c2cc(OC)ccc2O)nc1,"inconclusive [activator, full curve, poor fit]",–
COCc1cc(C)nc(OCC(=O)N/N=C/c2ccc(OC)c(OC)c2)c1C#N,–,inactive: -4.35%
Cc1ccc(NC(=S)Nc2cccc3cnccc23)cc1C,–,inactive: 6.79%
COc1cc(Cl)c(C)cc1NC(=O)c1ccc2c(SCC(=O)O)c3c(nc2c1)CCCC3,"inconclusive [activator, single point]",–
CC(C)C[C@H](NC(=O)c1nc[nH]c1C(=O)NCCCCCNC(=O)OC(C)(C)C)C(=O)OC(C)(C)C,"inconclusive [inhibitor, full curve, poor fit]",–
COc1cccc(NC(=O)c2oc3ccccc3c2NC(=O)c2ccc3c(c2)OCO3)c1,"inconclusive [inhibitor, partial curve]",–
CC1CCN(S(=O)(=O)c2ccc3c(c2)C(=NO)c2cc(S(=O)(=O)N4CCC(C)CC4)ccc2-3)CC1,"inconclusive [inhibitor, single point]",–
Cc1[nH]c2ccccc2c1/C=N/Nc1ccc(F)cc1F,–,inactive: 4.89%
O=C(Nc1ccc(F)c(Cl)c1)c1cc(S(=O)(=O)N2CCc3ccccc3C2)ccc1F,"inconclusive [inhibitor, partial curve]",–

SMILES,Potency,"activity, negative = inhibition"
FC(F)(F)c1cccc(-c2nc(COc3ccc(Cl)cc3Cl)no2)c1,"inconclusive [inhibitor, partial curve]",–
O=C(Nc1ccc2nc(SCc3ccccc3)sc2c1)c1ccccc1F,"inconclusive [inhibitor, partial curve]",–
Cc1ccc(OCC(=O)Nc2ccc3c(c2)nc(CCNC(=O)c2ccco2)n3C)cc1,–,inactive: -1.52%
Cc1[nH]n(-c2ccccc2)c(=S)c1C=Nc1cccc([N+](=O)[O-])c1,"inconclusive [inhibitor, single point]",–
Cc1[nH]n(-c2ncc(-c3ccccc3)s2)c(=O)c1C(c1ccc(Cl)cc1)C(C#N)C#N (stereo unspecified),"inconclusive [inhibitor, single point]",–
CCNc1sc(C(=O)c2cccs2)c(N)c1C#N,"inconclusive [inhibitor, single point]",–
CCN(CC)C(=S)Sc1c(-c2ccccc2)c2cc(Cl)ccc2[nH]c1=O,–,inactive: -6.16%
COc1ccc(Br)cc1C(=O)Nc1nc2ccc(F)cc2s1,"inconclusive [inhibitor, partial curve]",–
CN1CCc2nc(SCCOc3ccccc3)c(C#N)cc2C1,–,inactive: -11.9%
CC1CN(C(=O)Nc2ccc(C(=O)NCc3cccc(F)c3)cc2)c2ccccc2S1 (stereo unspecified),"inconclusive [inhibitor, single point]",–
CCCc1[nH]nc2c1C(c1cccnc1)C(C#N)=C(N)O2 (stereo unspecified),"inconclusive [inhibitor, partial curve]",–
CNc1cc(N2CCN(S(=O)(=O)N(C)C)CC2)ccc1[N+](=O)[O-],–,inactive: -2.05%
O=C(Nc1ccc(Cl)cc1)N1CCCN(Cc2ccc(F)cc2)C1,"inconclusive [inhibitor, single point]",–
COc1ccccc1NC(=O)c1cc2c(=O)oc3ccc(C)cc3c2s1,"inconclusive [inhibitor, partial curve, poor fit]",–
COc1cccc(CC(=O)N2CCc3nc(-c4ccccc4)c4c(c3C2)CO[C@@H](C)C4)c1,–,inactive: 1% [at 11.6 µM]
Cn1nc(-c2ccc(C(=O)Nc3ccc(F)cc3)cc2)c2ccccc2c1=O,"inconclusive [inhibitor, single point]",–
Cc1cccc(NS(=O)(=O)c2ccc(NC(=O)CN(c3cc([N+](=O)[O-])ccc3C)S(C)(=O)=O)cc2)c1,"inconclusive [inhibitor, partial curve]",–
CCC(C(=O)OCC(=O)Nc1ccc(Cl)c(S(=O)(=O)N(C)C)c1)c1ccccc1 (stereo unspecified),"inconclusive [inhibitor, single point]",–
COc1cc(CNc2ccc(N3CCCC3)cc2)ccc1OCc1ccccc1,"inconclusive [inhibitor, partial curve]",–
COc1ccc(CCNC(=O)c2ccc(CNc3nc(=S)[nH]c4ccccc34)cc2)cc1OC,"inconclusive [inhibitor, single point]",–
